81 sequences from paper PMC6602471 can be followed below.

Some of the results follow. At the low end of the ranking, values are background and their order means little.

The target of this assay is T1, ETS1 (UniProt P14921).
T1 sequence: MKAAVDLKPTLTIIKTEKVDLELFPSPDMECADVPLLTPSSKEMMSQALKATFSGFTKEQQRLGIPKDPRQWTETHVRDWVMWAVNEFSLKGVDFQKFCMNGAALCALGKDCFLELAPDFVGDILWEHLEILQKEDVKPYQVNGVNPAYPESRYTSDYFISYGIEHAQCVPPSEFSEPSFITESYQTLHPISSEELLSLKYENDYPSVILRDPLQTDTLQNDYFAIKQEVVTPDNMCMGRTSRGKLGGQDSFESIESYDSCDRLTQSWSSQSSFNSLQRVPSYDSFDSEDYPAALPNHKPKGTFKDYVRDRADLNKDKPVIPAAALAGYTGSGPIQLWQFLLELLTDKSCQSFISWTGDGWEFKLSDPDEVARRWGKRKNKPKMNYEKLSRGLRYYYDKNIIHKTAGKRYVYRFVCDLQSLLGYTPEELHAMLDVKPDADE
Kind of assay: custom PBM. The settings on record: custom protein-binding microarray; buffer, salt, pH and temperature not stated; high values mean tight binding; double strand, one strand shown.
Turning to “TACTGACTTTTATATGCGAATGCACATGAATAGACCGTCTTGATTCGCTTGACGCTGCTG”, the binding signal (log fluorescence intensity) turned out to be 8.18. With “GCTGCTGCGGTGCATACCCCACCGGATGTGACGCCGGTCTTGATTCGCTTGACGCTGCTG” the figure was 10; with “TACTGACTTATATATGCGAATGCACAGGAATAGACCGTCTTGATTCGCTTGACGCTGCTG”, 8.3. Take “CACAATTTTTACAGTAATGTAGCACGGGTAACTCCTGTCTTGATTCGCTTGACGCTGCTG”: the binding signal (log fluorescence intensity) was determined as 8.37. With “GGAAAAAGGCCCCGGGTAACACCGGAAGTGGGCTTAGTCTTGATTCGCTTGACGCTGCTG” the figure was 12.6; with “TCCGGCTACCTGCTCCACCCACTTCAGGCCTTGTAGGTCTTGATTCGCTTGACGCTGCTG”, 8.27; with “CAGCATAGGACTACTTCCCTGAAGCAATTGATAACCGTCTTGATTCGCTTGACGCTGCTG”, 8.63. Turning to “GTGTATAGGATCCCATCCCACACACGTGTTAAAATGGTCTTGATTCGCTTGACGCTGCTG”, the binding signal (log fluorescence intensity) was 8.26. With “TACTGACTTATATATGCGAATGCACATGAATACACCGTCTTGATTCGCTTGACGCTGCTG” the figure was 8.21; with “CAGCATAGGACTTCTTCCCTGAAGCAATTGATAACAGTCTTGATTCGCTTGACGCTGCTG”, 8.25; with “GTGTATACGATCCCATCCAACACACGTGTTAAAATGGTCTTGATTCGCTTGACGCTGCTG”, 7.71. Next, “CTGGAACTTGACCCAACTCTGCCACGTGGGTCGTTTGTCTTGATTCGCTTGACGCTGCTG”: 8.31; “CTGGGACTTGACCCAACTCTGCCACGTAGGTCGTTTGTCTTGATTCGCTTGACGCTGCTG”: 8.41; “GCTGCTGCGCTGCATACCCCACCGGATGTGACCCCGGTCTTGATTCGCTTGACGCTGCTG”: 10.1. As to “GGAAAAAGGCCCAGAGTAACACCGGAAGTGGGCTTAGTCTTGATTCGCTTGACGCTGCTG”, the binding signal (log fluorescence intensity) turned out to be 12.

For “GCTGGTGCGGTGCATACCCCACCGGATGTGACCCCGGTCTTGATTCGCTTGACGCTGCTG”, the binding signal (log fluorescence intensity) amounted to 10.2. Next, “CTGAGACTTGACCCAACTCTGCCACGTGGGTCGTTTGTCTTGATTCGCTTGACGCTGCTG”: 8.15. “TACTGACTTATATATGCGAATGTACATGAATAGACCGTCTTGATTCGCTTGACGCTGCTG”: the binding signal (log fluorescence intensity) came to 8.31. Regarding “GTGTATAGGATCCCATCCAACACACGTGTTAAACTGGTCTTGATTCGCTTGACGCTGCTG”, the binding signal (log fluorescence intensity) was 8.21. Consider “TGTCGGGTAAGGGAATGTAGATCACGTGAACGAAAAGTCTTGATTCGCTTGACGCTGCTG”, for which the binding signal (log fluorescence intensity) turned out to be 8.23. Take “GATTAATTTCTGCCCTTATTCGCACCTGCCATAACAGTCTTGATTCGCTTGACGCTGCTG”: the binding signal (log fluorescence intensity) was determined as 8.12. Next, “CCCGGCTACCAGCTCCACCCACTTCAGGCCTTGTAGGTCTTGATTCGCTTGACGCTGCTG”: 8.04; “TGTCGGGTAAGGGAATGTAGATCACGTGAATGAATAGTCTTGATTCGCTTGACGCTGCTG”: 8.24; “GCTGCTGCGGTGCATACCCCACCGGATGTGACCCCCGTCTTGATTCGCTTGACGCTGCTG”: 9.9. Take “CTGGGACTTGACCCAACTCTGCCACGTGGGTTGTTTGTCTTGATTCGCTTGACGCTGCTG”: the binding signal (log fluorescence intensity) is 8.01.

In the case of “TGTCGGGTAAGGGAATGTAGATCACGTGAGTGAAAAGTCTTGATTCGCTTGACGCTGCTG”, the binding signal (log fluorescence intensity) turned out to be 8.18.

For the sequence “GATTAATTTCTGCCCTTATTCGCACATGCCATAACAGTCTTGATTCGCTTGACGCTGCTG”, the binding signal (log fluorescence intensity) was 8.29.

On to “TAAAGGGAAGACGGTTGTGGTAGTTCCGGGTATTATGTCTTGATTCGCTTGACGCTGCTG”, for which the binding signal (log fluorescence intensity) stood at 8.5. For the sequence “TACTGACTTATATATGCGACTGCACATGAATAGACCGTCTTGATTCGCTTGACGCTGCTG”, the binding signal (log fluorescence intensity) was found to be 8.13. With “GATTAATTTCTGCCCTTATTCGCACGTTCCATAACAGTCTTGATTCGCTTGACGCTGCTG” the figure was 8.23; with “TAAAGGGAAGACGGTTGTGGTATTTCCGGGTATTAAGTCTTGATTCGCTTGACGCTGCTG”, 10.6; with “TAAAGGGAAGACGGTTGTGGTAGTTCCGGGTATAAAGTCTTGATTCGCTTGACGCTGCTG”, 8.76. Next, “CGGACGTGTCGTAAACGTCGGATATCCGGTTCTTCTGTCTTGATTCGCTTGACGCTGCTG”: 11.7. With “GGAAAAAGGCCCAGGATAACACCGGAAGTGGGCTTAGTCTTGATTCGCTTGACGCTGCTG” the figure was 12.2; with “TCCGGCTCCCAGCTCCACCCACTTCAGGCCTTGTAGGTCTTGATTCGCTTGACGCTGCTG”, 8.2; with “CAGCATAGGACTTCTTCCCTGAAGCAATTGCTAACCGTCTTGATTCGCTTGACGCTGCTG”, 8.28.

For the sequence “GGAAAAAGGCCCAGGGTAACACCGGAAGTGGACTTAGTCTTGATTCGCTTGACGCTGCTG”, the binding signal (log fluorescence intensity) worked out at 11.9. As for “CAGCATAGGACTTCTTCCCTGAAGCAATTCATAACCGTCTTGATTCGCTTGACGCTGCTG”, the binding signal (log fluorescence intensity) is 8.23. Regarding “TACTGACTTATATATGCGAATGAACATGAATAGACCGTCTTGATTCGCTTGACGCTGCTG”, the binding signal (log fluorescence intensity) was determined as 8.29. With “CTGGGACTTAACCCAACTCTGCCACGTGGGTCGTTTGTCTTGATTCGCTTGACGCTGCTG” the figure was 8.05; with “TCCGGCTACCAGCTCCACCTACTTCAGGCCTTGTAGGTCTTGATTCGCTTGACGCTGCTG”, 8.19. “TCCGGCTACCAGCTACACCCACTTCAGGCCTTGTAGGTCTTGATTCGCTTGACGCTGCTG”: the binding signal (log fluorescence intensity) was 8.02. With “GATTTATTTCTGCCCTTATTCGCACGTGCCATAACAGTCTTGATTCGCTTGACGCTGCTG” the figure was 8.13. Next, “TGGCGGGTAAGGGAATGTAGATCACGTGAATGAAAAGTCTTGATTCGCTTGACGCTGCTG”: 8.29. As for “TACTGACTTATATATGCGAAGGCACATGAATAGACCGTCTTGATTCGCTTGACGCTGCTG”, the binding signal (log fluorescence intensity) was determined as 8.01.

On to “TGTCGGGTAAGGGAATGTAGATCACGTGAATGACAAGTCTTGATTCGCTTGACGCTGCTG”, for which the binding signal (log fluorescence intensity) stood at 8.22. With “TAAAGGGAAGACGGTTGTGGTAGTTCCGGGTATTTAGTCTTGATTCGCTTGACGCTGCTG”, the binding signal (log fluorescence intensity) was found to be 8.53. As to “CAGCATAGGACTTCTTCCCTAAAGCAATTGATAACCGTCTTGATTCGCTTGACGCTGCTG”, the binding signal (log fluorescence intensity) is 8.25. In the case of “GCTGCTGCGGTGCATACCCCACCGGAAGTGACCCCGGTCTTGATTCGCTTGACGCTGCTG”, the binding signal (log fluorescence intensity) is 11.

“CAGCATAGGACTTCTTCCCTGAAGCAATTGTTAACCGTCTTGATTCGCTTGACGCTGCTG”: the binding signal (log fluorescence intensity) amounted to 8.37. For the sequence “CTGGGACTTGACCCAACTCTGTCACGTGGGTCGTTTGTCTTGATTCGCTTGACGCTGCTG”, the binding signal (log fluorescence intensity) stood at 8.23. With “GCTGCTGCGGTGCATACCCCACCGGATGTGACCCCTGTCTTGATTCGCTTGACGCTGCTG” the figure was 10.1; with “TCCGGCCACCAGCTCCACCCACTTCAGGCCTTGTAGGTCTTGATTCGCTTGACGCTGCTG”, 8.2; with “TCCGGCAACCAGCTCCACCCACTTCAGGCCTTGTAGGTCTTGATTCGCTTGACGCTGCTG”, 8.2. Regarding “TAAAGGGAAGACGGTTGTCGTAGTTCCGGGTATTAAGTCTTGATTCGCTTGACGCTGCTG”, the binding signal (log fluorescence intensity) came to 8.56. Next, “GATTAATTTCTGCCCTCATTCGCACGTGCCATAACAGTCTTGATTCGCTTGACGCTGCTG”: 8.11; “CAGCATAGGACCTCTTCCCTGAAGCAATTGATAACCGTCTTGATTCGCTTGACGCTGCTG”: 8.07; “TAAAGGGAAGACGGTTGAGGTAGTTCCGGGTATTAAGTCTTGATTCGCTTGACGCTGCTG”: 8.64. Regarding “CAGCATAGGACTCCTTCCCTGAAGCAATTGATAACCGTCTTGATTCGCTTGACGCTGCTG”, the binding signal (log fluorescence intensity) turned out to be 8.27.

Turning to “ATGTATAGGATCCCATCCAACACACGTGTTAAAATGGTCTTGATTCGCTTGACGCTGCTG”, the binding signal (log fluorescence intensity) was 8.32. On to “GTGTATAGGATCCCATCCAATACACGTGTTAAAATGGTCTTGATTCGCTTGACGCTGCTG”, for which the binding signal (log fluorescence intensity) is 8.35.

Turning to “GGAAAAAGGCCCAGGGTACCACCGGAAGTGGGCTTAGTCTTGATTCGCTTGACGCTGCTG”, the binding signal (log fluorescence intensity) came to 11.6. With “TAAAGGGAAGACGGTTGTGGTTGTTCCGGGTATTAAGTCTTGATTCGCTTGACGCTGCTG” the figure was 8.31. For the sequence “CAGCATAGGACTTCTTCCCTGAAGCAATTGATATCCGTCTTGATTCGCTTGACGCTGCTG”, the binding signal (log fluorescence intensity) worked out at 8.29.

“GTGTATAAGATCCCATCCAACACACGTGTTAAAATGGTCTTGATTCGCTTGACGCTGCTG”: the binding signal (log fluorescence intensity) came out at 8.14. Turning to “CAGCATAGGACTTCTTCCCTGAAGGAATTGATAACCGTCTTGATTCGCTTGACGCTGCTG”, the binding signal (log fluorescence intensity) is 8.32. Next, “TACTGACTTATGTATGCGAATGCACATGAATAGACCGTCTTGATTCGCTTGACGCTGCTG”: 8.33; “CAGCCTAGGACTTCTTCCCTGAAGCAATTGATAACCGTCTTGATTCGCTTGACGCTGCTG”: 8.09; “GCTGCTGCGGTGCATACCCCACCGGATGAGACCCCGGTCTTGATTCGCTTGACGCTGCTG”: 8.54. Turning to “TAAAGGGAAGACGGATGTGGTAGTTCCGGGTATTAAGTCTTGATTCGCTTGACGCTGCTG”, the binding signal (log fluorescence intensity) turned out to be 11.5. Next, “CAGCATAGGACTTCTTCCCTGAAGCCATTGATAACCGTCTTGATTCGCTTGACGCTGCTG”: 8.42. Next, “CTGGGACTTGACCCGACTCTGCCACGTGGGTCGTTTGTCTTGATTCGCTTGACGCTGCTG”: 8.49; “TACTGACTTATATATGCGAATGCAGATGAATAGACCGTCTTGATTCGCTTGACGCTGCTG”: 8.15; “CAGCATAGGACTTCTTCCCTGAAGCAATTGATAGCCGTCTTGATTCGCTTGACGCTGCTG”: 8.27.

With “TACTGACTTATATATGCGAATGCACAAGAATAGACCGTCTTGATTCGCTTGACGCTGCTG”, the binding signal (log fluorescence intensity) amounted to 8.14. With “TAAAGGCAAGACGGTTGTGGTAGTTCCGGGTATTAAGTCTTGATTCGCTTGACGCTGCTG”, the binding signal (log fluorescence intensity) was found to be 8.32.

With “CGGAAGTGTCGTAAACGTCGAATATCCGGTTCTTCTGTCTTGATTCGCTTGACGCTGCTG”, the binding signal (log fluorescence intensity) was found to be 12. As to “CTGGGACTTGACCCAACTCTGGCACGTGGGTCGTTTGTCTTGATTCGCTTGACGCTGCTG”, the binding signal (log fluorescence intensity) was 8.13. Next, “CAGCATAGGACTTCTTCCCTGAAGAAATTGATAACCGTCTTGATTCGCTTGACGCTGCTG”: 8.05; “CTGGGACTTGAACCAACTCTGCCACGTGGGTCGTTTGTCTTGATTCGCTTGACGCTGCTG”: 8.34. In the case of “GTGTATAGGATCCCATCCACCACACGTGTTAAAATGGTCTTGATTCGCTTGACGCTGCTG”, the binding signal (log fluorescence intensity) worked out at 8.29.
